# The supplement of paper PMC11060735
# Several values for one entry are separate records, joined by “and”; a condition that tells them apart may be missing. Equal values may be shown once. Out of some 1,800 compounds screened, about 50 (3%) showed activity. Some of the results follow.
# Tested on: mouse p16Ink4a+/- lung fibroblasts (INKBRITE, bleomycin-injured)
# Assay: percentage of GFP+ (p16Ink4a+) fibroblasts among all cells in well; higher = less depletion of p16Ink4a+ cells, active = 20 or less
# Conditions: 1 µM; 3 days
# 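Further: fibroblasts sorted 14 days after bleomycin, GFP+ and GFP− mixed 1:1 in 384-well plates (GFP− as in-well control), imaged after Hoechst and NucView530 staining, reference wells lacked compound.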
row,Structure (SMILES),percentage of GFP+
1,O=C(CCCN1CCN(c2ccccn2)CC1)c1ccc(F)cc1 [Azaperone],inactive: 53.9%
2,CCCCc1oc2ccc(NS(C)(=O)=O)cc2c1C(=O)c1ccc(OCCCN(CCCC)CCCC)cc1 [Dronedarone],inactive: 38.1%
3,CN1c2cc(O)c(N=NC(N)=O)cc2CC1S(=O)(=O)O (configuration not stated) [Carbazochrome sodium sulfonate],inactive: 43%
4,O=C1CC2(CCCC2)CC(=O)N1CCCCN1CCN(c2ncccn2)CC1 [Buspirone],inactive: 46.7%
5,Cc1ccc(C(=O)NCCCCCC(=O)Nc2ccccc2N)cc1,inactive: 40.4%
6,CCN(CC)C(=O)/C(C#N)=C/c1cc(O)c(O)c([N+](=O)[O-])c1 [Entacapone],inactive: 37.1%
7,CCCC(=O)OCO/C(O)=C1\C(C)=NC(C)=C(C(=O)OC)C1c1cccc(Cl)c1Cl (configuration not stated) [Clevidipine],inactive: 45.7%
8,CC(C)C[C@H](NC(=O)[C@H](CCc1ccccc1)NC(=O)CN1CCOCC1)C(=O)N[C@@H](Cc1ccccc1)C(=O)N[C@@H](CC(C)C)C(=O)[C@@]1(C)CO1 [Carfilzomib],active: 4.67%
9,O=C[C@H](O)[C@@H](O)[C@H](O)[C@H](O)CO [D-glucose],inactive: 42.5%
10,Cc1cc(Nc2ccc(NC(=O)c3ccc(Nc4ccnc5ccccc45)cc3)cc2)nc(N)n1,inactive: 49.5%
11,C=CC(=O)Nc1cccc(Nc2nc(Nc3ccc(OCCOC)cc3)ncc2F)c1,inactive: 41.3%
12,COc1ccc(-c2cnc3c(-c4cccc5ncccc45)cnn3c2)cc1,inactive: 45.2%
13,C=CC1=C(C(=O)O)N2C(=O)[C@@H](NC(=O)/C(=N\O)c3csc(N)n3)[C@H]2SC1 [Cefdinir],inactive: 49.9%
14,CCN(CCO)CCCOc1ccc2c(Nc3cc(CC(=O)Nc4cccc(F)c4)[nH]n3)ncnc2c1,inactive: 41%
15,Cc1cc(C)c(Nc2ccnc(Nc3ccc(C#N)cc3)n2)c(C)c1 [Dapivirine],inactive: 46%
16,O=C1OC(CN2CCOCC2)CN1/N=C/c1ccc([N+](=O)[O-])o1 (configuration not stated) [Furaltadone],inactive: 50.3%
17,O=C(C1CCCCC1)N1CC(=O)N2CCc3ccccc3C2C1 (configuration not stated) [Praziquantel],inactive: 44.9%
18,Cc1cccc(C#Cc2ccccc2)n1,inactive: 45%
19,C[C@@H](c1ncncc1F)[C@](O)(Cn1cncn1)c1ccc(F)cc1F [Voriconazole],inactive: 53.2%
20,CCOC(=O)C1=C(N)Oc2ccc(Br)cc2[C@H]1[C@H](C#N)C(=O)OCC,inactive: 45%
21,CC(=O)O[C@]1(C(C)=O)CC[C@H]2[C@@H]3CCC4=CC(=O)CCC4=C3[C@@H](c3ccc(N(C)C)cc3)C[C@@]21C [Ulipristal],inactive: 42.8%

row,Structure (SMILES),percentage of GFP+
1,NC12CC3CC(CC(C3)C1)C2 [Amantadine],inactive: 40.2%
2,CC(C)(Oc1ccc(Cl)cc1)C(=O)O [Clofibric Acid],inactive: 44.7%
3,CC1(C)[C@@H](O)CC[C@]2(C)[C@H]3C(=O)C=C4[C@@H]5C[C@@](C)(C(=O)O)CC[C@]5(C)CC[C@@]4(C)[C@]3(C)CC[C@@H]12 [Enoxolone],inactive: 43.2%
4,Cc1ccccc1C(=O)Nc1ccc(C(=O)N2CCCC(N(C)C)c3ccccc32)cc1 (configuration not stated) [Mozavaptan],inactive: 57.8%
5,COc1cc([C@@H]2c3cc4c(cc3[C@@H](O[C@@H]3O[C@@H]5CO[C@@H](c6cccs6)O[C@H]5[C@H](O)[C@H]3O)[C@H]3COC(=O)[C@H]23)OCO4)cc(OC)c1O [Teniposide],inactive: 21.1%
6,CCO[C@@H]1OC(=O)C[C@@H]1NC(=O)[C@@H]1CCCN1C(=O)[C@@H](NC(=O)c1ccc(N)c(Cl)c1)C(C)(C)C,inactive: 35.6%
7,CCC1(c2ccccc2)C(=O)NCNC1=O [Primidone],inactive: 38.9%
8,CO[C@H]1/C=C/O[C@@]2(C)Oc3c(C)c(O)c4c(O)c(c5c(nc6cc(C)ccn65)c4c3C2=O)NC(=O)/C(C)=C\C=C\[C@H](C)[C@H](O)[C@@H](C)[C@@H](O)[C@@H](C)[C@H](OC(C)=O)[C@@H]1C [Rifaximin],inactive: 46%
9,CN(CCOc1ccc(NS(C)(=O)=O)cc1)CCc1ccc(NS(C)(=O)=O)cc1 [Dofetilide],inactive: 40.4%
10,COc1ccc2cc3[n+](cc2c1OC)CCc1cc2c(cc1-3)OCO2 [Berberine],inactive: 38.5%
11,Cc1ccc(Nc2nccc(N(C)c3ccc4c(C)n(C)nc4c3)n2)cc1S(N)(=O)=O [Pazopanib],inactive: 27.5% and inactive: 28.8%
12,O=C1CN2Cc3c(ccc(Cl)c3Cl)N=C2N1 [Anagrelide],inactive: 46.1%
13,CC1(C)CCC(CN2CCN(c3ccc(C(=O)NS(=O)(=O)c4ccc(NCC5CCOCC5)c([N+](=O)[O-])c4)c(Oc4cnc5[nH]ccc5c4)c3)CC2)=C(c2ccc(Cl)cc2)C1 [Venetoclax],inactive: 54.5%
14,CCCCCCCCCCC[C@@H](C[C@@H]1OC(=O)[C@H]1CCCCCC)OC(=O)[C@H](CC(C)C)NC=O [Orlistat],inactive: 46.3%
15,CC(=O)O[C@]1(C(C)=O)CC[C@H]2[C@@H]3C=C(C)C4=CC(=O)CC[C@]4(C)[C@H]3CC[C@@]21C [Megestrol Acetate],inactive: 39.5%
16,C=C1CC[C@@H]2[C@](C)(CO)[C@H](O)CC[C@@]2(C)[C@@H]1C/C=C1/C(=O)OCC1O (some centres not stated) [Andrographolide],inactive: 33.7%
17,CCn1c2ccccc2c2cc(Nc3ccnc(NCCCN4CCOCC4)n3)ccc21,inactive: 52.4%
18,CC(C)n1nc(-c2ccc3oc(N)nc3c2)c2c(N)ncnc21,inactive: 43.3%
19,COc1cc2c(N3CCN(C(=O)Nc4ccc(OC(C)C)cc4)CC3)ncnc2cc1OCCCN1CCCCC1,inactive: 44.4%
20,O=C(CS(=O)Cc1ccco1)NC/C=C\COc1cc(CN2CCCCC2)ccn1 (configuration not stated) [Lafutidine],inactive: 36.9%
21,CS(=O)(=O)OCCCCOS(C)(=O)=O [Busulfan],inactive: 50.1%
